Self-cleavage data for 167 variants are collected here from the RNAGym collection of RNA variant scans (doi:10.7554/elife.90254).

Read counts are not given, so values of variants with three or more changes are uncertain.

B1: OR4K15 (parent)
chain: GUUAACGGUCAUAGGCCAUGGAAACUAGGAGCACCAUUUCGCUGCCAGUGAAGAAAUGAACAAAGAAAAUCUGGGCCAGGCAGGCAUCAAAAGAAAUAGUCUUGCGCUCAACCAGAAAGUCUGUAAUCAUUUUAAGGGUA

This data set covers variants of B1. Kind of data set: self-cleavage, relative activity (ratio to wild type); higher = more cleavage; in vitro, sequencing; the parent is a self-cleaving ribozyme.
On to U9C U39C A47U A86U U87C A96G, for which the self-cleavage turned out to be 0.68. To C10U A64C C128U belongs 0.54; to A11G A51G U108C, 0.08; to U9C A67G C107A A126G, 0.01.

With A11G A33G A91G, the self-cleavage is 0.62. As for U9C A60G A64G U100C, the self-cleavage was 1.55.

Consider U9C A52G U87C A89G, for which the self-cleavage was 1.17.

Consider A11G A33G U39C U130C, for which the self-cleavage was 0.63.

With U9C A23G G58A A68G U132C, the self-cleavage stood at 1.27. To A11C A114G A117G belongs 0.19; to C10U U43C A54U A60G U131C, 0.67. The same measure for U9C A51G U57C: 0.29; for C10U A52G G65A A89G A92U A94U: 1.08. To U9C A51G A68G A114G A134G belongs 0.43; to A11C A55U A67G A89G U120C A126G, 0.23. As to A11G A36G U127G, the self-cleavage was 0.99. The same measure for U9C U108C U130C: 0.01. As to A11G A24G U97C A98U A118G, the self-cleavage was determined as 0.35. To U9C A78G A90U A118G belongs 0.41. A11G A18G U100C: the self-cleavage is 0.78. In the case of A11C A23G A68C, the self-cleavage is 1.57. To U9C A36G A118G belongs 1.21; to A11G A36U C42U C85U A116G, 0.32. For A11G A23G A86G A91G U102C, the self-cleavage amounted to 0.81. The same measure for U9C A68G A116U U133A: 0.67; for A11G A55G A64G: 1.54; for U9C A24G U37C U43A: 1.25.

On to U9C C35U A68G U131C U139A, for which the self-cleavage was 0.95. Regarding U9C U19C A51U, the self-cleavage was determined as 0.91. The same measure for C10U U12A U97C A98G: 0.69; for A11G A30U U43A A86U: 1.94. The same measure for U9C A52G A63G U72C: 0.44. The same measure for U9C A33G U102C: 2.18. Take U9C A60G C77A: the self-cleavage was 1.38. The same measure for A11G A22G U38A U100C: 0.88; for A11G A23U A60G A89G A118G: 0.71. To U9C A67U A89U belongs 2.33; to U9C A66G U100C, 1.7. To A11G A22G A54G belongs 1.35.

Regarding U9G A33G C46A A66G U70G, the self-cleavage came to 0.48. With A11G A30G A117G, the self-cleavage turned out to be 0.6. In the case of C10A U19C G115A, the self-cleavage was 0.04. With U9C U49C U131C, the self-cleavage was determined as 1.8.

In the case of U9C A24G U43G A64G, the self-cleavage stood at 0.76. Turning to U9C A62G A78C A89U U120C, the self-cleavage turned out to be 0.21. Take U9C A55G U132C: the self-cleavage turned out to be 1.16. As to C10U A18U A54G, the self-cleavage was 1.18. In the case of U9G A59G A117G, the self-cleavage is 1.45. On to U9C A59G A86G A117G, for which the self-cleavage came to 1.95. As for U9C U39C A56C, the self-cleavage amounted to 1.59.

For the variant U9C A96G U130C, the self-cleavage stood at 1.34. Take U9C A90G A126G A129G: the self-cleavage amounted to 0.47. Turning to C10U A68G A78U A92G A116G, the self-cleavage came out at 0.08. Regarding U9C G14A A69G G104A A114G, the self-cleavage turned out to be 0. To U9C C17U A90G belongs 0.84; to U9G A24G A33G C105U, 0.06. The same measure for U9C U37C U39G U57C U108A: 0.03. U9G A64G U102C U131C: the self-cleavage worked out at 1.42.

For U9C A47G A117G A129G, the self-cleavage came out at 1.78.

U9C A23G A66G A95G: the self-cleavage was 1.79. The same measure for A11G A22U U38C: 0.29; for U9C U43A A96U C105U: 0.12. To U9C C16U U19C A47U U72C U130A belongs 0.23.

Take U9C U26G A60U U100C: the self-cleavage was 0.98. In the case of U9C A56G A59U, the self-cleavage worked out at 0.91. Turning to U9C A33G U38C A96G, the self-cleavage is 1.34.

Regarding A11C U19C U103C, the self-cleavage was 1.13. The same measure for U9C A51G A59U: 1.15; for A11G A52G A96G: 1.26. Consider U9C U38A U43C A47U A116G, for which the self-cleavage worked out at 0.2. To U9C U103C A118U belongs 0.47; to U9C A22U A60C U100C, 1.68. The same measure for U9C U38C A118C: 1.4; for A11G A24G A47G: 0.43; for C10U A22G A47G U131C: 0.31. To U9C A33G A67G A111G A126G belongs 0. With C10A A51G A110G, the self-cleavage was found to be 0.14.

For U9C A30G A91G, the self-cleavage stood at 1.32.

A11C U19C A64G A66G: the self-cleavage was found to be 1.58. Take U9C A91G U102C C128U: the self-cleavage worked out at 1.09. To C10U C17U A52G belongs 0.85; to U9C A54G U87C U124C, 0.82; to U9C U38C A52G, 0.62. In the case of A11G A22G A56G A86G A134G, the self-cleavage worked out at 1.09. On to U9C A52G U103C, for which the self-cleavage was found to be 1.71. In the case of U9C A56G U97C A116G U127C, the self-cleavage was determined as 0.17. To A11G A47C U132C belongs 0.23.

For the variant U9C U49C U130G, the self-cleavage is 1.18. To U9C A33G U43C A126G A135G belongs 0.11; to U9C A96G A126G, 1.69. To C10U A55G A60G A63G A96G belongs 1.44.

A11C A60G A78U U100A U132C: the self-cleavage stood at 0.04. The same measure for U9C A68G A82G A96G U130C: 0.44; for U9C A27G U57C A68G U130C: 0.66; for A11C A68U U72C U97C U100C U132C: 0.7. Consider U9C U39C A114U U122A U124A, for which the self-cleavage was 0.04. The same measure for U9C A24G A55G: 0.83; for U9C A67C A116G: 1.86; for U9C G84A A92G: 1.66. The same measure for A11G A18U A51G A55U U131C: 0.37; for U9C A24C A89U A111G: 0.04.

For C10U A33G U39C A54G A56G U57G A59U, the self-cleavage was 0.57. To U9C A30C A135G belongs 1.55. The same measure for A11G A30G A116U: 0.67; for A11G A33G A51G A60U U132C: 0.41. U9C U37C A68G A118G: the self-cleavage is 1.14. Regarding U9C A60G A66U A86U U102A, the self-cleavage stood at 0.68.

As for U9C A56G G74A A91G A140U, the self-cleavage was 0.09. For A11C A47G A91G, the self-cleavage is 1.09. The same measure for U9C A24G A67G G74U: 0.14; for U9C A47G A89G: 1.07; for U9C U37C U43C A78G A92U A96G A110G: 0.07.

For the variant C10G A33G A55C, the self-cleavage is 1.31.

As for U9C G31A U100A, the self-cleavage is 1.62. The same measure for U9C A47G A52U A94U: 1.27.

Consider U9C A59G A89C U122C, for which the self-cleavage turned out to be 1.82. To A11G A33G A36C A134G belongs 1.32; to U9C A60G U87C, 0.88; to U9C A63U A82U, 0.19. To A11G A23C A69G A96G belongs 0.51; to U9C U72C A91G U139A, 0.31; to U9C U38C A114G A129G U133C, 0.77. The same measure for U9C U37C A116G: 1.55; for U9C A64G A95G: 2.01. Turning to U9C U38C A89U, the self-cleavage came out at 2.66. To U9C A51G A52G U108C U130C belongs 0.25; to U9C A63G A68G, 1.16; to A11C A68G U102A, 0.76. To A11G A47G A117G A126C belongs 0.63. For the variant U9C A51G U103C A114U U139C A140G, the self-cleavage came to 0.06. To U9C A59U A67G A125G belongs 0.72; to U9C U38C A47U A89C A125U, 0.27.

With A11G A13G A69C A90C, the self-cleavage worked out at 1.06. Regarding U9G A30U U100A C101A, the self-cleavage stood at 0.1. With A11G A13G A90G U103C U133A, the self-cleavage came out at 0.36. Regarding A11C A59U A96G C109U, the self-cleavage is 0.3.

A11G A23G C40U: the self-cleavage worked out at 1.15. Consider U9C A116U U120C A134G, for which the self-cleavage worked out at 0.11. As for A11G A55G A69G U127C, the self-cleavage turned out to be 0.32.

Take A11G A54G A63G: the self-cleavage was 0.88. To U9C A117G U120C belongs 0.83; to U9C A47G G75A A94G, 0.15; to U9C U19C A82G A135G, 0.59.

Consider U9C G31A A36U U102C, for which the self-cleavage is 1.65. Take C10U A11C A30G A67G U103C U139C: the self-cleavage worked out at 1.24. To A11G A33G A52G A82G belongs 0.32; to A11G A30G U39C, 0.43; to U9G A51G A69G, 1.04. The same measure for C10A A23U A89G: 1.7; for U9C A23G A55G U108C A114G: 0.02; for U9C U19C A24G A60G A94G: 1.02. With U9C A30U A52G U131C, the self-cleavage came out at 1.22.

As to A11G A33G U49A, the self-cleavage was found to be 0.39. A11G A47G A64U: the self-cleavage is 1.18.

In the case of U9C U37C A63G A64G, the self-cleavage came out at 0.85. The same measure for U9C U12A A59G: 2.21; for U9C G44A U49C A64G A116C A129G: 0.04.

Regarding A11G A23U U131C U132C, the self-cleavage is 1.

With U9C U39A U103C, the self-cleavage turned out to be 0.52.

In the case of A11G A52U A114U, the self-cleavage came to 0.04. With U9C A47G A116G U131C, the self-cleavage amounted to 0.34. To U9C A86G A110G belongs 0.18.

Regarding U9C U38A U103C U131A, the self-cleavage was 1.02. The same measure for C10A A27C A56G A78G: 0.3; for U9C U39C A56G C105U A110G: 0.08; for U9C A89U A118G: 2.11.

As to A11C A78G U131C, the self-cleavage was 0.13.
